# Experimental data as given in the supplement of paper PMC11283458.
# The other results are listed elsewhere or left out. Single values are uncertain, as repeats are few or missing.
# Columns and labels:
# [1] = tested on: Mef2d microexon dual Nano/Firefly luciferase splicing reporter in Neuro-2a cells; assay: B-score of Firefly/Nano luminescence ratio, V1 Mef2d microexon reporter (B-score (plate-normalised)); higher = more Mef2d microexon inclusion; conditions: 24 h
# [2] = tested on: Mef2d microexon dual Nano/Firefly luciferase splicing reporter in Neuro-2a cells; assay: B-score of Nano/Firefly luminescence ratio, V2 Mef2d microexon reporter (B-score (plate-normalised)); higher = more Mef2d microexon inclusion; conditions: 24 h
# 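For B-score of Nano/Firefly luminescence ratio, V2 Mef2d microexon reporter in this document: compounds at 4 µM (PKI library 0.5 µM) on Dox-inducible N2A Flp-In cells with PEST-tagged luciferases, 384-well plates, B-score from per-plate median-polish residual over median absolute residual.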
SMILES,B-score [1],B-score [2]
CSC1=N/C(=C\c2ccc([N+](=O)[O-])s2)C(=O)N1CCOc1ccc(Cl)cc1 (4 µM),10.8,6.74
O=C(NCCNc1nccc(C(F)(F)F)n1)Nc1ccccc1Cl (4 µM),-11.5,-20.6
CC(C)(C)c1ccc2cc(C#N)c(C#N)cc2c1 (4 µM),-2.07,-8.59
Cc1ccc(S(=O)(=O)N/N=C/c2cc(Cl)ccc2O)cc1 (4 µM),28.7,57.4
"Cc1cc(Nc2cc(N3CCN(C)CC3)nc(Sc3ccc(NC(=O)C4CC4)cc3)n2)n[nH]1 [VX-680, MK-0457, Tozasertib, VX6] (0.5 µM)",-4.01,-4.36
O=C(COc1cccc([N+](=O)[O-])c1)N1CCN(c2ncc(C(F)(F)F)cc2Cl)CC1 (4 µM),3.89,0.683
O=C1OC(CC(=O)c2csc3ccccc23)c2ccccc21 (stereo unspecified) (4 µM),10.4,2.5
NCCCS(=O)(=O)O [3-Amino-1-propanesulfonic acid sodium] (4 µM),-4.59,-2.85
C/C(=N\Cc1ccc(Cl)c(Cl)c1)c1ccccc1O (4 µM),6.46,2.58
O=C(c1cncn1-c1ccccc1)N1CCN(c2cccc(C(F)(F)F)c2)CC1 (4 µM),-9.31,-10.2
Cc1nc2ncccn2c1-c1csc(Nc2ccc(N(C)C)cc2)n1 (4 µM),-6.07,-12.7
C[C@@H](Oc1cc(-n2cnc3ccc(CN4CCN(C)CC4)cc32)sc1C(N)=O)c1ccccc1C(F)(F)F (0.5 µM),-5.46,-3.97
Cn1cc(/C=C2\C(=O)Nc3cccnc32)c2ccccc21 (4 µM),3.01,6.5
